The other results are listed elsewhere or left out.

The values that follow come from publication PMC7819943, “Rice protein-binding microarrays: a tool to detect cis-acting elements near promoter regions in rice”.

The test deals with T1, OsWOX13 (Oryza sativa, UniProt Q5QMM3 1-267).
T1 sequence: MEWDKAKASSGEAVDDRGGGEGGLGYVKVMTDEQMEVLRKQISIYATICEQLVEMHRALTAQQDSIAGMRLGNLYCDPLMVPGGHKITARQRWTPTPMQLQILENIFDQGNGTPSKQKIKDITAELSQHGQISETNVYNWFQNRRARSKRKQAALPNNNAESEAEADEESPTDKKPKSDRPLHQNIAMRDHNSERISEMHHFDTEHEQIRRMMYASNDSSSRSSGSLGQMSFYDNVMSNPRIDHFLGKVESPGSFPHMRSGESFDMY
Kind of test: protein-binding microarray (RPBM); PBS, 2% BSA, 51.3 ng/ul salmon testes DNA, 50 uM zinc acetate, 200 nM TF, 25 C, 1 h; high values mean tight binding. The settings on record: protein: recombinant; tags: N-terminal polyhistidine and DsRed monomer fusion (pET32a); label: CyDye5-dUTP incorporated in the synthesized complementary strand; 3' TTTTT single-stranded linker to array surface; dsDNA, one strand shown. Put shortly:
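Binding signal is reported as fluorescence intensity per feature (arbitrary units) from an Axon 4000B scanner. Incubation used 200 nM of each Ni–NTA-purified, N-terminally polyhistidine- and DsRed-fused transcription factor from E. coli BL21-CodonPlus on a double-stranded custom Agilent array for 1 h at 25 °C, with 50 µM zinc acetate in the buffer, followed by washing.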
As to “AAATAAAAGGTAATTTATAAATAAAACTTTTATATACATGCGGAGTCACCTAGTGCAG”, the binding signal was 12100 fluorescence intensity (a.u.).

For the sequence “TTAAATTCCAATTTTACACCTCTAAAATATTTTACTACCCCGGAGTCACCTAGTGCAG”, the binding signal is 6110 fluorescence intensity (a.u.).

With “GCTTACCACTAAATTGCCTGTCATGCAACTACAATCAACCCGGAGTCACCTAGTGCAG”, the binding signal is 12500 fluorescence intensity (a.u.).

Regarding “AGTAGTTTCAGTCAATCTAAATGTAAACAATCACATAATCCGGAGTCACCTAGTGCAG”, the binding signal was 11200 fluorescence intensity (a.u.).

For “TAGTCTTTGTTTGATTGGGCATTCTATAAATCGAGAAAATCGGAGTCACCTAGTGCAG”, the binding signal was 6780 fluorescence intensity (a.u.).

Consider “TATGATTTTCCACCCTTGAAGGGTATGTTCAAATTTTAGCCGGAGTCACCTAGTGCAG”, for which the binding signal was 6230 fluorescence intensity (a.u.).

As for “TGGGCATATCTGCGGACGCAGTAAGGGCAGTTCCAACCCACGGAGTCACCTAGTGCAG”, the binding signal was 10700 fluorescence intensity (a.u.).

“ACAAAACTTTCAAATTTAGCCGTTCTAAAATTGAAACCCTCGGAGTCACCTAGTGCAG”: the binding signal is 4400 fluorescence intensity (a.u.).

As for “GATAAAATGATAAATAATTATATTAGGATTTGATAAAGTACGGAGTCACCTAGTGCAG”, the binding signal is 21800 fluorescence intensity (a.u.).

Consider “TGGATTTATATATCTTGATTTGTCATTAAGAATATCATGGCGGAGTCACCTAGTGCAG”, for which the binding signal is 7160 fluorescence intensity (a.u.).

For the sequence “CAAACTCCACTTGATTACTTCATCGTGCCGACGTCGACACCGGAGTCACCTAGTGCAG”, the binding signal is 7260 fluorescence intensity (a.u.).

Consider “ACTTGATTTCTACATATGGTTATCGGAGGGAACTGGACTTCGGAGTCACCTAGTGCAG”, for which the binding signal was 12000 fluorescence intensity (a.u.).

For “ATTAATTTGAGAGAAAACTTTGTAAGAAGGGAAAACAATACGGAGTCACCTAGTGCAG”, the binding signal is 6610 fluorescence intensity (a.u.).

With “TGATGATTAGTCGATTACTGTTTTCCTATAGCCATCGTTACGGAGTCACCTAGTGCAG”, the binding signal was 30100 fluorescence intensity (a.u.).

Regarding “AGGCTGTTGCAATCAGAGGTAATTAATTACTTGCTCTATACGGAGTCACCTAGTGCAG”, the binding signal was 28100 fluorescence intensity (a.u.).

In the case of “ATTAATATCCATCATGTTCCTCCAATTAGTTTTATAAAGCCGGAGTCACCTAGTGCAG”, the binding signal was 7890 fluorescence intensity (a.u.).

As for “CTTCTTCTCATAATTGGTTGGTCGCTAGTTAACACTAAATCGGAGTCACCTAGTGCAG”, the binding signal was 5330 fluorescence intensity (a.u.).

Take “AAAATTCATGATTGATTTTGTAGTGGATCAACCTTGCCAACGGAGTCACCTAGTGCAG”: the binding signal is 52400 fluorescence intensity (a.u.).

“GAGATTGCTTCAAACTGAGAGCCTGAGGATTCACACCCCACGGAGTCACCTAGTGCAG”: the binding signal was 5240 fluorescence intensity (a.u.).

As to “ATTTAATTTAATTTAATTGTTCCTCCTCTTCTTCTTCTCTCGGAGTCACCTAGTGCAG”, the binding signal is 41000 fluorescence intensity (a.u.).

Consider “GATTTAACTGATAGAACAAATATTCAACACGCATTGTGTACGGAGTCACCTAGTGCAG”, for which the binding signal was 22300 fluorescence intensity (a.u.).

Regarding “CTAACAAATTGTTGGCCACACTATATTTGCCGTGCCATACCGGAGTCACCTAGTGCAG”, the binding signal is 5260 fluorescence intensity (a.u.).

As for “CACTAATTTTGCCTTTGTGCCTTTTACTATTGCGCATCACCGGAGTCACCTAGTGCAG”, the binding signal was 14500 fluorescence intensity (a.u.).

As for “TCCATGACAACTACACATAATTGCGGACCACATTAACTCCCGGAGTCACCTAGTGCAG”, the binding signal was 7100 fluorescence intensity (a.u.).

Regarding “TTTATTAATTTGCGTGTGAAACTGACATGTGGGTCTCATGCGGAGTCACCTAGTGCAG”, the binding signal is 34000 fluorescence intensity (a.u.).

Take “CCTCCTGCTAATTTGTCTGGTGAACAATGCCACAGGTAATCGGAGTCACCTAGTGCAG”: the binding signal was 6040 fluorescence intensity (a.u.).

Regarding “TAGATGATTGCACTAGATTTTGCTTTGTGTACTTATTGAACGGAGTCACCTAGTGCAG”, the binding signal was 32900 fluorescence intensity (a.u.).

As for “TCTCCCATCCAATTAAAGTACAGTCAAGCAAATTATGGCCCGGAGTCACCTAGTGCAG”, the binding signal was 5250 fluorescence intensity (a.u.).

With “GGTCTAGATTAATTATACTACCACAAAACAAGGATATCATCGGAGTCACCTAGTGCAG”, the binding signal is 17700 fluorescence intensity (a.u.).

Take “TTGATTGGAATACGGTGGATGATACTGAAGTAGACAAGAACGGAGTCACCTAGTGCAG”: the binding signal is 17700 fluorescence intensity (a.u.).

On to “ATAGACGCGATTGGACTTTAATTGCCGTCAGGGATTTTAACGGAGTCACCTAGTGCAG”, for which the binding signal was 10800 fluorescence intensity (a.u.).

As to “CGTGGGGCCATGATTGGCAAGGTGATTTTGGCTGCTCAAACGGAGTCACCTAGTGCAG”, the binding signal was 28000 fluorescence intensity (a.u.).

For the sequence “AGACTAATAGATTAGTCTAACTACCGAAACAACCTGCGTCCGGAGTCACCTAGTGCAG”, the binding signal was 37700 fluorescence intensity (a.u.).

“TCAAACAAACCAATCAATCAATCAATCAGGGGATTCTTACCGGAGTCACCTAGTGCAG”: the binding signal was 42300 fluorescence intensity (a.u.).

As to “AACTGAAATTAATTAATTACATTGTTGTAGCTCCACAAATCGGAGTCACCTAGTGCAG”, the binding signal is 40700 fluorescence intensity (a.u.).

Take “TTGTGAAGAATTAATTACAATAAACACAATAGTCATTGTGCGGAGTCACCTAGTGCAG”: the binding signal was 9620 fluorescence intensity (a.u.).

As for “CAGATTAACAGGTAGAACAAGCAGTACACTGATACGATACCGGAGTCACCTAGTGCAG”, the binding signal is 10700 fluorescence intensity (a.u.).

As for “ACTAATTTCATAACTCTCCTGGAAACCGTGAGATGAATCTCGGAGTCACCTAGTGCAG”, the binding signal was 6360 fluorescence intensity (a.u.).

For “ATCATCTATCAATCCCTACCATCGCCCTCTTTCTGTTTTGCGGAGTCACCTAGTGCAG”, the binding signal is 4380 fluorescence intensity (a.u.).

On to “TTGCTTACTTAGTTAAAATTTAAATTTTCAATGTTAAATTCGGAGTCACCTAGTGCAG”, for which the binding signal is 5160 fluorescence intensity (a.u.).

As for “TTTTAATAATTAATTAGTTATATGCTAATCACGTTTCTCACGGAGTCACCTAGTGCAG”, the binding signal is 38400 fluorescence intensity (a.u.).

Take “AGAAATTCAACTATAATTAGCCATAAAATATGGCGACATCCGGAGTCACCTAGTGCAG”: the binding signal is 5640 fluorescence intensity (a.u.).

As for “GAGGACTGGGGAGGGCGGGGAGAGGGGAGGGCGTCGCGTGCGGAGTCACCTAGTGCAG”, the binding signal is 7080 fluorescence intensity (a.u.).

As for “TCATGACAAATCATCCGTGTGACTGTCACTTGTGAGGCTGCGGAGTCACCTAGTGCAG”, the binding signal is 6380 fluorescence intensity (a.u.).

Regarding “CTAAACTGGCAGCTTCCTAGTTGTCTATGTTCAGCTGGATCGGAGTCACCTAGTGCAG”, the binding signal was 19500 fluorescence intensity (a.u.).

On to “GGAGGAAATTCAATCAGGAGGAAGATGAGGGATGACTTATCGGAGTCACCTAGTGCAG”, for which the binding signal is 5290 fluorescence intensity (a.u.).

On to “CATGATGGGTGGTGCCATTTATACGATGTGCCCGTAACCGCGGAGTCACCTAGTGCAG”, for which the binding signal is 3310 fluorescence intensity (a.u.).

For the sequence “ATGAATAATTTGAGTGGTGAATTTTCCTTCTTCTGGCTGACGGAGTCACCTAGTGCAG”, the binding signal is 14200 fluorescence intensity (a.u.).

For the sequence “CCGTGTAATGTTGATTGCGTCTTTCTAGGTTTAGTTTGCACGGAGTCACCTAGTGCAG”, the binding signal is 14200 fluorescence intensity (a.u.).

Turning to “CAGGTACGTTATTGAGTGATTTGTTATTCTGATTTACCTTCGGAGTCACCTAGTGCAG”, the binding signal is 3800 fluorescence intensity (a.u.).

On to “TGCTAAATTAGTTAAACTTATCTAACCTTAAGAATGACAACGGAGTCACCTAGTGCAG”, for which the binding signal is 14700 fluorescence intensity (a.u.).

With “CAAATTCAATTCAATTTTAATTTATTTTATCTGCATGCGACGGAGTCACCTAGTGCAG”, the binding signal was 9020 fluorescence intensity (a.u.).

Regarding “ATGTTGATTATCTCTCATGCATTATTATTATTTAATTAATCGGAGTCACCTAGTGCAG”, the binding signal was 22000 fluorescence intensity (a.u.).

As to “ATGGGAACTAGAATTGATTACCTGATGACAATGTAACCACCGGAGTCACCTAGTGCAG”, the binding signal was 28300 fluorescence intensity (a.u.).
